PubChem BioAssay AID1259400 (National Center for Advancing Translational Sciences (NCATS), 2018)
Out of some 350,000 compounds screened, about 2,100 (0.6%) were called active. Inconclusive means that the source gave no clear call. Such entries were picked first, then a sample of the others.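 The calls were made as follows: active = activity change of -60% or lower, but not beyond a set lower limit; inconclusive = change between -60% and -40%, or beyond the set limit; inactive = change above -40%.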

Target: Relaxin receptor 1 (Homo sapiens) (UniProt Q9HBX9)
Assay: qHTS Assay for Antagonists of the Relaxin Receptor RXFP1
Conditions: HEK293-RXFP1, relaxin-stimulated cAMP HTRF, 30 min; at 57.5 µM; stronger effect = lower value
% is scaled to controls: 0 for no effect and ±100 for the full control effect.

Sequence of UniProt Q9HBX9 (Q9HBX9 whole entry, looked up): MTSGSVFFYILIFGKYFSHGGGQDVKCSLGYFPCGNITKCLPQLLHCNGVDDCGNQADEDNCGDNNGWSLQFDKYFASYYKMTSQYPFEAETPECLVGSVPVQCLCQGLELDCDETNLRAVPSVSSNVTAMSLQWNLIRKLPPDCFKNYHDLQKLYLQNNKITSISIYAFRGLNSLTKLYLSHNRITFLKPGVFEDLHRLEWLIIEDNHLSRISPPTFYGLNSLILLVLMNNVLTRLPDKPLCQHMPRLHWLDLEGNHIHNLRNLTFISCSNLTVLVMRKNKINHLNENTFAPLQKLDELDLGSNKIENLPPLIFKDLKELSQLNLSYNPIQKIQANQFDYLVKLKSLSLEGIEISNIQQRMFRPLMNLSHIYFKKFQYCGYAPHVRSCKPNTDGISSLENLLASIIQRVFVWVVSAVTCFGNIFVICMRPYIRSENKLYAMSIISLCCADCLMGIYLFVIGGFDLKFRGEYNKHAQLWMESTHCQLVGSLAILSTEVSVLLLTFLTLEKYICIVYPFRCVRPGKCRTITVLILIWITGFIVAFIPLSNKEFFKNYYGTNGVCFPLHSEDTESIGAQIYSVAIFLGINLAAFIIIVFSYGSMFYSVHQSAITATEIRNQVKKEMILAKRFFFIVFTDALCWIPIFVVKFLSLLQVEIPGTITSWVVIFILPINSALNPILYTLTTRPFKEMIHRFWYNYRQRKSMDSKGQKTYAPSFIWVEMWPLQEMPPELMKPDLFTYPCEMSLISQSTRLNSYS

| SMILES | activity change, negative = inhibition |
| --- | --- |
| c1ccc(CNCCCNCCCCNCCCNCc2ccccc2)cc1 | inconclusive: -49.7% |
| COc1cc(C(C)=O)ccc1OCC(=O)Nc1ccc(C)c(S(=O)(=O)N2CCCCCC2)c1 | inactive: -18.4% |
| OCCNCc1c(OCc2ccc(Cl)cc2)ccc2ccccc12 | inconclusive: -41.7% |
| CCCCCCCc1c(C#N)c(N)[nH]c(=S)c1C#N | inactive: -18% |
| CCOC(=O)C1=C(O)/C(=C/c2cn(CC(=O)N3CCCC3)c3ccccc23)SC1=Nc1ccccc1 | inactive: -7.23% |
| N#CC1c2ccccc2C=CN1C(=O)N(c1ccccc1)c1ccccc1 (stereo not given) | active: -94.3% |
| Fc1ccccc1CN1CCCCCCC1 | inactive: -13.8% |
| CN(Cc1ccco1)C(=O)c1ccc2c(c1)N(Cc1ccccc1F)C(=O)c1ccccc1S2 | inconclusive: -42.7% |
| CCc1c(C)nc(SCC(=O)Nc2nc(-c3ccc(OC)cc3)cs2)[nH]c1=O | inconclusive: -47.7% |
| CCC1CN(C(=O)N2CCC(C(=O)N3CCN(c4cccc(C)c4C)CC3)CC2)c2ccccc2O1 (stereo not given) | inconclusive: -42.6% |
| Cc1ccc2[nH]c(-c3cccc(N)c3)cc2c1 | inactive: 2.7% |
| CCOC(=O)c1c(-c2ccc(C)cc2)csc1NC(=O)/C(C#N)=C/c1ccc(O)c(OC)c1 | inconclusive: -41% |
| COC(=O)c1sccc1NC(=O)Cc1ccc(OC)c(OC)c1 | inactive: 4.53% |
| Cc1nc(C(=O)Nc2cc(Cl)ccc2Cl)nn1-c1cc(OC(C)C)c(Cl)cc1Cl | inactive: -5.37% |
| CCOCCCNC(=O)C(c1ccc(C)cc1)N(Cc1ccc2c(c1)OCO2)C(=O)c1ccccc1O (stereo not given) | inactive: -20.6% |
| O=C(CN(C1CCCCC1)C1CCCCC1)N1CCc2ccccc2C1 | inconclusive: -57.7% |
| CC(C)c1ccc(NC(=O)c2cn(C3CCCC3)c(=O)c3c2c2ccccc2n3C)cc1 | inconclusive: -40.4% |
| Cc1ccc(SC(CC(=O)c2ccc(C(C)(C)C)cc2)C(=O)O)cc1 (stereo not given) | inconclusive: -59.8% |
| COc1ccc(CNC(=O)CCC2N=C3c4ccccc4N=C(SCC(=O)NCCc4ccc(OC)c(OC)c4)N3C2=O)cc1 (stereo not given) | inactive: -7.05% |
| CC1=NNC(=O)/C1=C\c1cn(-c2ccccc2)nc1-c1ccc(Cl)cc1 | inconclusive: -48% |
| CC1=NCCN1S(=O)(=O)c1cc([N+](=O)[O-])ccc1Cl | inconclusive: -41.8% |
| Cc1nc(-n2nc(C)c(Cc3ccc(Cl)cc3)c2C)sc1C(=O)N1CCC(C)CC1 | inactive: -3.42% |
| OC(COC(c1ccc(F)cc1)c1ccc(F)cc1)CN1CCc2ccccc2C1 (stereo not given) | active: -62.2% |
| CCCCCOc1ccc(/C=c2\sc3nc(=O)c(-c4ccccc4)nn3c2=O)cc1OC | inactive: -5.27% |
| S=C(NCCCN1CCOCC1)N1CCN(c2nc(-c3ccc(Cl)cc3)cs2)CC1 | inconclusive: -41% |
| CCC(C(=O)Nc1ccccc1N1CCCC1)c1ccccc1 (stereo not given) | active: -68.1% |
| COc1cccc(N2CCN(C(=O)c3cnc4c(-c5ccc(F)cc5)c(C)nn4c3C)CC2)c1 | inconclusive: -47.2% |
| O=C(Nc1nnc(C2=COCCO2)o1)c1ccc(Cl)cc1 | inactive: -3.63% |

| SMILES | activity change, negative = inhibition |
| --- | --- |
| Cc1ccc(-n2c(SCC(=O)Nc3ccc(Cl)cc3)nc(O)cc2=O)cc1 | inconclusive: -42.7% |
| CCCCC(=O)Nc1nnc(S(=O)(=O)N2CCCCCC2)s1 | inconclusive: -41.9% |
| CN(C)CCN(C)Cc1ccccc1Sc1cccc2ccccc12 | inconclusive: -58.8% |
| CCc1ccc(OCC(=O)NCC(c2ccc(Cl)cc2)N2CCCCC2)cc1 (stereo not given) | inconclusive: -48.9% |
| CCN(Cc1ccccc1)C(=O)COC(=O)Cn1cnc2ccccc21 | inconclusive: -58.1% |
| CCOC(=O)C1(CCOc2ccccc2)CCN(Cc2cccn2-c2ncccn2)CC1 | inactive: -3.16% |
| COc1ccccc1/C=C/C=N/n1c(-c2ccc(F)cc2)n[nH]c1=S | inconclusive: -42.5% |
| Cc1ccc(C(=O)Nc2ncc(Cc3ccccc3)s2)o1 | inconclusive: -55.2% |
| Cc1ccc(C(C)C)c(OCC(=O)Nc2ccc3c(c2)nc(CCN2CCCCC2)n3C)c1 | active: -60.6% |
| COc1ccc(OCC(=O)N2CCC(n3nccc3NC(=O)C3CC3)CC2)cc1 | inconclusive: -42.1% |
| CC(=O)Nc1ccc(C(=O)OCc2ccc(F)cc2)cc1 | inactive: -2.02% |
| c1ccc(-c2nc3c4ccccc4ccn3c2CN2CCCCC2)cc1 | inconclusive: -49.6% |
| CC1CCc2c(sc(NC(=O)COC(=O)c3ccc(NC(=O)CC#N)cc3)c2C#N)C1 (stereo not given) | inconclusive: -52% |
| CSCCC(NC(=O)c1ccccc1)C(=O)N1CCN(Cc2ccc(Cl)cc2)CC1 (stereo not given) | inconclusive: -53.1% |
| COc1ccc(C2CC(c3ccc(Br)cc3)=NN2C(=S)Nc2ccccc2)cc1 (stereo not given) | inconclusive: -54% |
| Cc1ccc(C(=O)NC(=S)NNS(=O)(=O)c2ccccc2)cc1 | inconclusive: -43.9% |
| COc1cc(/C=C2\C(=O)ON=C2c2ccccc2)cc(Br)c1O | inactive: -3.53% |
| Cc1ccccc1Nc1nnc(SCC(=O)c2ccc(O)cc2O)s1 | inconclusive: -49% |
| CCOC(=O)c1c(NC(=O)C(NCCN(C)C)c2ccccc2)sc2c1CCCC2 (stereo not given) | inconclusive: -44.5% |
| CC(=O)Nc1cccc(Nc2nc3ccccc3n3c(C)nnc23)c1 | inactive: -2.72% |
| CC1=NN(C(N)=S)C(=O)C1N=Nc1c(Br)cc(Br)cc1Br (stereo not given) | active: -64.3% |
| COc1ccc(NS(=O)(=O)c2cccc(-c3nnc(-c4ccccc4)o3)c2)cc1 | inactive: -9.1% |
| O=C(Oc1ccc(F)cc1)c1nc(SCc2ccc(F)cc2)ncc1Cl | inactive: -1.79% |
| COc1cccc(-n2nnnc2S(C)(=O)=O)c1 | inactive: 10.9% |
| O=c1cc(-c2c(O)c3ccccc3n(Cc3ccccc3)c2=O)[nH][nH]1 | active: -84.1% |
| Nc1nonc1C(=O)NCCN=Cc1cc(Cc2ccccc2)cc(Br)c1O | active: -73% |
| O=C(COC(=O)/C=C/c1ccc(OC(F)F)cc1)Nc1ccc(S(=O)(=O)N2CCCC2)cc1 | inactive: 9.76% |
